Measurements taken from PubChem BioAssay AID624170 (National Center for Advancing Translational Sciences (NCATS), 2012).
The campaign covered roughly 410,000 compounds. About 850 (0.21%) were called active. Inconclusive means that the source gave no clear call. Such entries were picked first, then a sample of the others. The call rests on the fitted dose curve; in most records, active means well fitted inhibition curve with a large enough effect; inconclusive means small, poorly fitted or top-dose-only effect, or another doubt; inactive means no such curve, though single readings can be large or run the other way. Where the call is inconclusive, the potency comes from a doubtful curve fit.

target: Glutaminase kidney isoform, mitochondrial (Homo sapiens) (UniProt O94925); experiment: qHTS for Inhibitors of Glutaminase (GLS); conditions: GLS enzymatic activity, qHTS titration; series mostly up to 45.5 µM
Method in brief: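 Read-out is an Amplex red fluorescence increase coupled through glutamate oxidase and HRP, measured before and after 30 min room-temperature incubation. hKGA is in 45 mM KH2PO4 (pH 8.2) with 0.02% Tween-20; glutamine added as 1mM solution.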
Potency means the concentration at half of the fitted maximal effect; tags describe the fitted curve by direction and shape.

UniProt O94925, sequence (O94925 whole entry, looked up, canonical isoform): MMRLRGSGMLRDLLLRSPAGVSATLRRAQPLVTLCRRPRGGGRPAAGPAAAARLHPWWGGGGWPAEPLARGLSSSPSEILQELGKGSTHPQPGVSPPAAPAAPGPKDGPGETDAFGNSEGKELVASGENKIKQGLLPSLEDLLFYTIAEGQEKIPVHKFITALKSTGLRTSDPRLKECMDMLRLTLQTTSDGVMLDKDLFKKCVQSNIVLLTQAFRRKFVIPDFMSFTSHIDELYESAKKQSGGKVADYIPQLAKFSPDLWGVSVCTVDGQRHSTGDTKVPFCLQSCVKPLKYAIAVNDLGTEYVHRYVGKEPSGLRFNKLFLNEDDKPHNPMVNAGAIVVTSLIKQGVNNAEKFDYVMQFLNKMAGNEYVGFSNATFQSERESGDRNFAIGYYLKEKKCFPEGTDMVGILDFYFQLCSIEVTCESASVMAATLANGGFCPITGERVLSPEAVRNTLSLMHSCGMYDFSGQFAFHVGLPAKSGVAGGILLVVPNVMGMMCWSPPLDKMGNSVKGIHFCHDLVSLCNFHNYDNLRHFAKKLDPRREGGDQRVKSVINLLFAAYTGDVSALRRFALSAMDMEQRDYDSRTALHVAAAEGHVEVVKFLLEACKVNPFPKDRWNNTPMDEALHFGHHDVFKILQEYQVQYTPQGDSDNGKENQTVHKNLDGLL

Potency, inconclusive:
O=C(Cc1ccc(Cl)cc1)NNC(=O)c1cnccn1 35.5 µM [inhibitor, single point], CN=c1scc(-c2cccs2)n1/N=C/c1ccc(O)c(O)c1O 12.6 µM [inhibitor, partial curve], O=C(O)c1ccc2c(=O)n3c(nc2c1)/C(=C/c1cccc(Cl)c1Cl)CC3 35.5 µM [inhibitor, single point], O=C(CCCCCn1c(=O)[nH]c2ccccc2c1=O)NCc1ccc(Cl)cc1 6.31 µM [inhibitor, full curve], Cc1nnc(Sc2cc(NCCCO)c([N+](=O)[O-])c3nonc23)s1 10 µM [inhibitor, partial curve], COc1cc(C)c(C)cc1S(=O)(=O)NC1CC(C)(C)NC(C)(C)C1 22.4 µM [inhibitor, single point], CN(C)c1nc(=NCc2ccco2)ss1 3.16 µM [inhibitor, full curve], O=C(NC1CCCCC1)c1ccc2c(c1)OCO2 25.1 µM [inhibitor, single point], Cc1cc(C)c(C(=O)CSc2nc(C)cc(=O)[nH]2)c(C)c1 11.2 µM [inhibitor, partial curve], C=CC1=C(C(=O)O)N2C(=O)C(NC(=O)Cc3ccccc3)C2SC1 (configuration not stated) 35.5 µM [inhibitor, single point], Cc1cc(Cl)ccc1NNC(=O)c1cccs1 35.5 µM [inhibitor, single point], N#CCCn1nc(-c2ccc(Br)cc2)cc1Nc1ccccc1NC(=O)C(F)(F)F 14.1 µM [inhibitor, partial curve], COc1ccc(S(=O)(=O)N(C)CC(=O)Nc2ccccc2OC)cc1 35.5 µM [inhibitor, single point], CCOC(=O)C(=CNNc1cccc(Cl)c1)C(=O)OCC 35.5 µM [inhibitor, single point], COc1ccc(NC(=O)CC2C(=O)N(c3ccc(C)cc3)C(=O)N2Cc2ccc(C)cc2)cc1 (configuration not stated) 35.5 µM [inhibitor, single point], CC(Oc1ccc2ccc(=O)oc2c1)C(=O)NC(Cc1c[nH]c2ccc(O)cc12)C(=O)O (configuration not stated) 11.2 µM [inhibitor, partial curve], COc1ccc(-c2csc(Nc3ccc(S(=O)(=O)Nc4cc(C)on4)cc3)n2)cc1 11.2 µM [inhibitor, partial curve, poor fit], COC(=O)c1cccc(CN2C(=O)SC(Nc3ccc(Cl)cc3)C2=O)c1 (configuration not stated) 35.5 µM [inhibitor, single point], Cc1cccc(NC(=O)Nc2c(C)n(C)n(-c3ccccc3)c2=O)c1 35.5 µM [inhibitor, single point], Cc1cc(=O)n(CC(=O)NC(C)c2ccccc2)c2c1c(C)nn2C (configuration not stated) 10 µM [inhibitor, partial curve], C/C(=N\NC(=O)c1cccnc1)c1nnn(-c2nonc2N)c1C 31.6 µM [inhibitor, partial curve, poor fit], CC(C)(C)Nc1c(-c2cccs2)nc2ccccn12 35.5 µM [inhibitor, partial curve, poor fit], Cc1ccc(CNc2ccc3c(c2)ncn3C)cc1 35.5 µM [inhibitor, single point], CCN(C(=O)CN1CCN(Cc2ccccc2)CC1)c1c(N)n(Cc2ccccc2)c(=O)[nH]c1=O 35.5 µM [inhibitor, single point], COc1ccc(C(=O)Nc2ccc(Nc3ccccc3)cc2)cc1Br 0.316 µM [inhibitor, full curve, poor fit], FC(F)(F)c1nnc2ccc(Cl)nn12 20 µM [inhibitor, single point], CCN(CC)S(=O)(=O)c1cccc(-c2n[nH]c(=S)n2/N=C/c2ccc(C(=O)OC)cc2)c1 7.94 µM [inhibitor, partial curve], Cc1ccc(N2NC(=O)/C(=C/c3ccc(-c4ccc(Cl)c(C(=O)O)c4)o3)C2=O)cc1 35.5 µM [inhibitor, single point], NN=C1c2ccccc2C(=O)C1C(=O)C(c1ccccc1)c1ccccc1 (configuration not stated) 14.1 µM [inhibitor, single point], Cc1ccc(S(=O)(=O)N2CCN(c3ccc(C(F)(F)F)cc3[N+](=O)[O-])CC2)cc1 17.8 µM [inhibitor, single point], CCC1([N+](=O)[O-])COC(c2ccc(C)cc2)OC1 (configuration not stated) 0.794 µM [inhibitor, full curve], CCOC(=O)c1sc(N/N=C/c2ccccc2)nc1C 5.01 µM [inhibitor, partial curve, poor fit], Cn1nc(-c2ccccc2)c(C(=O)Nc2ccc(C(F)(F)F)cc2)c1Cl 6.31 µM [inhibitor, single point], COc1ccc(N2CCC(CNC(=S)Nc3cc(C)cc(C)c3)C2)cc1 (configuration not stated) 20 µM [inhibitor, single point], c1ccc2c(c1)ccc1nnc(SCc3ccc4c(c3)OCO4)n12 35.5 µM [inhibitor, partial curve, poor fit], CN(C)c1ccc(/C=N/n2c(C3CCCCC3)n[nH]c2=S)cc1 15.8 µM [inhibitor, partial curve, poor fit], CC12CCC(C(=O)N(CSC(=S)N/N=C\c3ccccc3Cl)C1=O)C2(C)C (configuration not stated) 11.2 µM [inhibitor, partial curve], COc1cc(C(=S)NCc2ccccc2)cc(Br)c1O 3.16 µM [inhibitor, full curve], CNC(=O)N(O)C1N(/N=C/c2ccccc2OC)C(=S)SC1(C)C (configuration not stated) 10 µM [inhibitor, partial curve], Cc1csc2ncc(C(=O)NC(C)c3ccccc3)c(=O)n12 (configuration not stated) 17.8 µM [inhibitor, single point], CC(=O)Nc1cccc(/C(C)=N/Nc2ccc(S(=O)(=O)Nc3ccccc3C(=O)O)cc2[N+](=O)[O-])c1 35.5 µM [inhibitor, single point], CCC(C)Nc1nc2c(c(=O)n(C)c(=O)n2C)n1C (configuration not stated) 5.62 µM [inhibitor, full curve, poor fit], Clc1ccc(C(c2ccccc2)N2CCNCC2)cc1 (configuration not stated) 35.5 µM [inhibitor, single point], Cc1cc2c(cc1C)NC(CC(=O)Nc1ccccc1SC(F)(F)F)C(=O)N2 (configuration not stated) 7.94 µM [inhibitor, partial curve, poor fit], O=c1cc(-c2ccsc2)oc2cc(-c3ccc4c(c3)OCO4)ccc12 10 µM [inhibitor, partial curve, poor fit], O=c1c(C=NCc2cccnc2)c(C(F)(F)F)[nH]n1-c1nc2ccccc2s1 22.4 µM [inhibitor, single point], O=C(NCc1ccccc1Cl)C1CCN(S(=O)(=O)c2ccc(F)cc2)CC1 35.5 µM [inhibitor, single point], CN(Cc1ccccc1)C(=O)C1CCN(S(=O)(=O)c2cccc3nsnc23)CC1 22.4 µM [inhibitor, single point], O=C(NNc1cc(Cl)cc(Cl)c1)c1c(F)cccc1Cl 12.6 µM [inhibitor, partial curve], CC1(C)CC(=O)c2sc(NS(=O)(=O)c3cc(Cl)ccc3Cl)nc2C1 12.6 µM [inhibitor, partial curve]

Potency, active:
Oc1ccc(/C=N/n2c(-c3ccccc3)n[nH]c2=S)cc1 15.8 µM

Potency, inactive:
O=C(Nc1ccc(O)c(-c2nc3ccccc3o2)c1)C1(c2ccc([N+](=O)[O-])cc2)CCCC1, Cc1ccc([N+](=O)[O-])c(OCCN2CCCCCC2)c1, CC(NC(=O)c1ccc(Br)s1)c1ccncc1 (configuration not stated), COc1ccc(Br)cc1CNC(=O)c1nn(-c2ccc(C)cc2)c(=O)c2c1c1ccccc1n2C, CCOc1ccc(OCC(=O)Nc2nnc3n2CCS3)cc1, C[n+]1c(/C=C/c2ccc(O)cc2)ccc2ccccc21, O=C(N/N=C/c1ccc(-c2ccccc2[N+](=O)[O-])o1)c1cncc(Br)c1, O=C(N[C@H]1/C=C\[C@@H](O)CCCC1)OCc1ccccc1, O=C(COc1cccc([N+](=O)[O-])c1)N/N=C/c1ccco1, N#CCn1cnc2c(oc3ccccc32)c1=O, CC(=O)C1=C(O)C(=O)N(c2ccc(O)cc2)C1c1ccccc1Cl (configuration not stated), COc1ccc(OC)c(C(=O)CN2CCN(S(=O)(=O)c3ccc(Br)cc3)CC2)c1, COc1ccc(C2C(C#N)=C(N)Oc3cc(C)n(Cc4ccco4)c(=O)c32)cc1 (configuration not stated), Cc1ccc(S(=O)(=O)c2nc(S(C)(=O)=O)sc2NCc2ccccc2)cc1, CCN(CC)S(=O)(=O)c1ccc2c(c1)N(CC(=O)Nc1ccc(C)cc1C)C(=O)C1CCCN21 (configuration not stated), CCNc1ccccc1CP(=O)(c1ccccc1)c1ccccc1O (configuration not stated)
